About 260 (0.063%) of roughly 410,000 compounds were called active. Inconclusive means that the source gave no clear call. Such entries were picked first, then a sample of the others. Calls follow the shape of the dose curve; as a rule, active = well fitted activation curve with a large enough effect; inconclusive = small, poorly fitted or top-dose-only effect; inactive = no such curve, though single readings can be large or run the other way. No potency is given beside an inconclusive call; the fits are too rough.
Experiment: qHTS for compounds that reverse cellular toxicity of Amyloid beta (A-beta) peptide in yeast: Primary Screen; also: nearly all actives have a fitted effect of over 55% in size
Conditions: yeast expressing A-beta42, growth rescue, OD600, 48 h; growth rescue: at 46.1 µM (top of the series), 0% DMSO, 100% iron-clioquinol control
Method in brief: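 Yeast A-beta toxicity model in growth medium with pinned compounds, 48 h at 30 C; growth read as absorbance at 600 nm. Normalized to FeCl3/clioquinol equimolar mix (positive) and DMSO (negative).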
Potency is read from the fitted curve at half-maximal effect; tags tell the direction and shape of the fitted curve.

| Structure (SMILES) | growth rescue | Potency |
| --- | --- | --- |
| O=C(Nc1ccc2c(c1)OCCO2)C1CCCN(S(=O)(=O)c2cccs2)C1 (stereo unspecified) | inactive: 7.91% |  |
| COc1ccccc1N1CN(CCc2ccccc2)CNC1=S |  | inconclusive [activator, single point] |
| OC1COC(OCc2ccccc2)C(O)C1O (stereo unspecified) |  | inconclusive [activator, full curve, poor fit] |
| Cc1ccc(O)c(-c2cc(C(F)(F)C(F)F)[nH]n2)c1 |  | inconclusive [activator, partial curve, poor fit] |
| CCCc1[nH][nH]c(=O)c1C(c1ccc(Br)cc1)C(C#N)C#N (stereo unspecified) |  | inconclusive [activator, single point] |
| Cc1cc(C)c2nc(N3CCCC(C(=O)NC4CCCC4)C3)sc2c1 (stereo unspecified) |  | inconclusive [activator, single point] |
| COC(=O)c1nnn(-c2cccc(C)c2)c1C(=O)OC | inactive: -2.47% |  |
| Cc1c(NC(=O)C(C)Oc2ccccc2F)c(=O)n(-c2ccccc2)n1C (stereo unspecified) |  | inconclusive [activator, single point] |
| COc1cc(C)c(S(=O)(=O)N2CCCC2)cc1C |  | inconclusive [activator, full curve, poor fit] |
| CCOC(=O)C1(C)CCCCN1C(=O)c1ccc(F)c(C)c1 (stereo unspecified) |  | inconclusive [activator, partial curve, poor fit] |
| C=CCc1cccc(/C=N/NC(=O)c2ccccc2Br)c1O |  | inconclusive [activator, single point] |
| COc1ccc(-c2n[nH]c(C)c2-c2ccccc2OC)c(O)c1 |  | inconclusive [activator, single point] |
| Cc1ccc(S(=O)(=O)Nc2ncnc3sccc23)cc1C |  | inconclusive [activator, single point] |
| COc1ccc(NC(=O)CSc2nc3ccccc3n2Cc2cccc(OC)c2)cc1 | inactive: -23.1% |  |
| COc1ccc(-n2c(/C=C3\C(=O)N(C)c4ccccc43)nc3ccccc3c2=O)cc1 |  | inconclusive [activator, single point] |
| C=C(C)CNC(=S)N/N=C/c1c(F)cccc1F |  | inconclusive [activator, partial curve] |
| CC(C)Oc1ccc(F)cc1-c1cc(C(=O)N2CCc3ccccc3C2)[nH]n1 | inactive: -1.39% |  |
| COc1ccccc1C(=O)COC(=O)Cc1c[nH]c2ccccc12 |  | inconclusive [activator, partial curve, poor fit] |
| CCCC1Nc2ccc(C(=O)O)cc2C2C=CCC12 (stereo unspecified) |  | inconclusive [activator, full curve] |
| Cc1ccc(NC(=S)NNC(=O)C2CC2c2ccc(C)cc2)cc1 (stereo unspecified) |  | inconclusive [activator, partial curve, poor fit] |
| CSc1nc(C)cc(C)c1S(=O)(=O)c1ccccc1C |  | inconclusive [activator, single point] |
| COc1ccc(S(=O)(=O)N2CCC(C(N)=O)CC2)c2ccccc12 | inactive: -3.56% [at 9.22 µM, 0% DMSO, 100% iron-clioquinol control] |  |
| CCN(Cc1ccccc1)C(=O)Cn1c(=O)n(-c2ccc(C)c(C)c2)c(=O)c2c(C)c(C)sc21 | inactive: -6.09% |  |
| Cc1ccc(N2CCN(C(=O)c3cccc([N+](=O)[O-])c3)CC2)cc1Cl |  | inconclusive [activator, single point] |

| Structure (SMILES) | growth rescue | Potency |
| --- | --- | --- |
| Cn1c(CCCOc2ccc(Cl)cc2Cl)n[nH]c1=S |  | inconclusive [activator, single point] |
| Cc1cnc(=O)[nH]c1SCc1ccc(C(F)(F)F)cc1 |  | inconclusive [activator, single point] |
| O=C(NCCCN1CCN(c2ccc(F)cc2)CC1)c1ccc2nc(Cc3ccccc3)oc2c1 | inactive: -8.76% |  |
| O=S(=O)(c1ccccc1)N(CC(O)COc1ccccc1)c1ccccc1 (stereo unspecified) |  | inconclusive [activator, partial curve, poor fit] |
| Cc1ccccc1C(=O)N1CCC(C(=O)N2CCCc3ccccc32)CC1 | inactive: 7.93% |  |
| COc1ccc(OC)c(NC(=O)CSc2nnc(CNC(=O)c3cccs3)o2)c1 |  | inconclusive [activator, single point] |
| CCCCC1C2C(=O)N(c3ccccc3)C(=O)C2ON1c1ccccc1 (stereo unspecified) |  | inconclusive [activator, partial curve, poor fit] |
| S=c1[nH]c(-c2ccccc2)cn1/N=C/c1ccc(Br)cc1 |  | inconclusive [activator, single point] |
| CC1(C)CC(=O)c2c(O)cc(OCC(=O)NCCc3ccc(S(N)(=O)=O)cc3)cc2O1 | inactive: -14% |  |
| Cc1cccc(C(C(C(=O)c2ccccc2)N2CCOCC2)N2CCOCC2)c1 (stereo unspecified) |  | inconclusive [activator, full curve] |
| Cc1cccc(C(=O)NCc2ccco2)c1 |  | inconclusive [activator, single point] |
| O=C(CCc1nc2ccccc2s1)NCc1ccccc1F |  | active: 20 µM |
| c1ccc(-c2n[nH]c3c2CCC3)cc1 |  | inconclusive [activator, partial curve] |
| O=C1/C(=C/c2ccccc2[N+](=O)[O-])COc2ccccc21 |  | inconclusive [activator, single point] |
| CCN(CC)c1ccc(C(=S)NC2CCCCC2)cc1 |  | inconclusive [activator, partial curve] |
| COC(=O)N1CCCCC1c1cc(C(=O)Nc2cccc3c2CCCC3)no1 (stereo unspecified) |  | inconclusive [activator, single point] |
| O=C(CCl)c1ccc(Cc2ncc(C(F)(F)F)cc2Cl)s1 | inactive: -20.1% |  |
| CC(C)=NNC(=O)c1c(O)c2ccccc2[nH]c1=O |  | inconclusive [activator, partial curve, poor fit] |
| COc1cnc(-c2ccccn2)nc1Oc1ccccc1 |  | inconclusive [activator, single point] |
| Cc1nonc1OCCNc1ccc([N+](=O)[O-])cc1[N+](=O)[O-] |  | inconclusive [activator, full curve, poor fit] |
| Cc1ccc(C(=O)COC(=O)c2ccccc2N2C(=O)C3C4CCC(C4)C3C2=O)cc1C (stereo unspecified) | inactive: 8.79% |  |
| CCOc1ccc(-n2c(=O)c3c(C)c(C)sc3n(CC(=O)C(C)(C)C)c2=O)cc1 | inactive: -6% |  |
| CSc1c(C#N)c(N)nc2sc(C(=O)c3ccccc3)c(N)c12 |  | inconclusive [activator, partial curve, poor fit] |
| Cc1cccc(CS(=O)(=O)c2nnc([C@H](Cc3ccccc3)NC(=O)OC(C)(C)C)o2)c1 | inactive: -84.7% |  |

| Structure (SMILES) | growth rescue | Potency |
| --- | --- | --- |
| O=C(COc1ccccc1)Nc1nc2c(s1)CCCC2 |  | inconclusive [activator, single point] |
| O=C(NC(=S)N1CCCC(O)C1)c1ccco1 (stereo unspecified) | inactive: 4.58% |  |
| CC(C)Oc1cccc(C(=O)C2CCCN(C(=O)c3cncs3)C2)c1 (stereo unspecified) |  | inconclusive [activator, single point] |
| COc1cccc(CNC(=O)c2cc(-c3ccc(Cl)cc3)n[nH]2)c1 | inactive: -6.85% |  |
| COc1cc2c(cc1OC)-c1cc(N3CCCCCC3)nc(=O)n1CC2 | inactive: 9.53% |  |
| COc1ccc(NC(=O)c2ccc(-c3c(C)noc3C)c3ccoc23)cn1 |  | inconclusive [activator, single point] |
| C=CCn1c(-c2sc(-c3ccccc3)nc2C)n[nH]c1=S |  | inconclusive [activator, single point] |
| CN1C(=O)C(CC(=O)Nc2ccc(F)cc2)N(CCCc2ccccc2)C1=S (stereo unspecified) |  | inconclusive [activator, partial curve, poor fit] |
| COc1ccc(Cc2nnc(NC(=O)c3ccccc3C)s2)cc1 |  | inconclusive [activator, partial curve] |
| COc1ccc(-n2cnc(=S)[nH]c2=S)cc1 |  | inconclusive [activator, partial curve] |
| O=C(Nc1cccc(-c2cn3c(n2)SCC3)c1)c1ccc2ccccc2n1 | inactive: -18.2% |  |
| COC(=O)c1c(N)n(-c2cc(Cl)cc(Cl)c2)c2nc3ccccc3nc12 | inactive: -2.37% |  |
| O=[N+]([O-])c1ccc(SCCO)nc1SCCO |  | inconclusive [activator, single point] |
| CC1(C)CC(=O)C(c2c[nH]c3ccccc23)C(=O)C1 |  | inconclusive [activator, partial curve] |
| CN(C)C1CCN(Cc2cc(COCc3ccccc3)c3cccnc3c2O)C1 (stereo unspecified) |  | inconclusive [activator, single point] |
| CCOc1ccc(S(=O)(=O)Nc2ccc(O)c(Sc3ncn[nH]3)c2)cc1 | inactive: -8.33% |  |
| Cc1ccc(NC(=O)C(C)N2C(=O)C3C4CC(C(Br)C4Br)C3C2=O)cc1 (stereo unspecified) |  | inconclusive [activator, single point] |
| O=C(/C=C/c1ccc(F)cc1)NC(=S)Nc1ccccc1 |  | inconclusive [activator, full curve, poor fit] |
| COc1ccc(NC(=O)c2cccc(Oc3ccccc3)c2)cn1 | inactive: 7.39% |  |
| O=C(CSc1ncc2c(n1)-c1ccccc1N(Cc1ccccc1)S2(=O)=O)Nc1ccccc1 | inactive: -5.02% |  |
| C=Cc1ccc(CN2C(=O)N(c3ccc(CC)cc3)S(=O)(=O)c3ccccc32)cc1 | inactive: 11% |  |
| COc1ccc(OC)c(CCNC(=O)c2c(C)nn(-c3ccc(F)cc3)c2-n2cccc2)c1 | inactive: -8.56% |  |
| Cc1ccccc1OCc1n[nH]c(=S)n1-c1ccccc1 |  | inconclusive [activator, partial curve, poor fit] |

— PubChem BioAssay AID1347071 (National Center for Advancing Translational Sciences (NCATS), 2019)
